Results from PubChem BioAssay AID2100 (National Center for Advancing Translational Sciences (NCATS), 2009).
The whole screen tested about 300,000 compounds, of which about 1,200 (0.4%) were called active. This list was built around the results that the source calls inconclusive (neither active nor inactive); the mix of calls is not that of the screen. Calls come from the whole dose curve; as a rule, active = well fitted inhibition curve with a large enough effect; inconclusive = small, poorly fitted or top-dose-only effect, or another doubt; inactive = no such curve, though single readings can be large or run the other way. Where the call is inconclusive, the potency comes from a doubtful curve fit.

molecular target: Lysosomal alpha-glucosidase (Homo sapiens) (UniProt P10253); assay: qHTS Assay for Inhibitors and Activators of Human alpha-Glucosidase Cleavage of Glycogen; details: recombinant GAA, glycogen substrate, Amplex Red glucose oxidase fluorescence; activity change, negative = inhibition: at 76.4 µM (top of the series) unless noted;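 for activity change, negative = inhibition: 0% = full enzyme reaction and -100% = no-enzyme basal signal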
Procedure, shortened: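 Recombinant human enzyme (4 nM); glycogen substrate; 37 C, 40 min, pH 5.0. Readout: coupled glucose oxidase/Amplex Red fluorescence.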
Potency is the fitted concentration of half-maximal effect.

| SMILES | activity change, negative = inhibition | Potency |
| --- | --- | --- |
| CCOc1ccc(C(=O)N2CCN(c3cccc(Cl)c3)CC2)cc1 | inactive: 0.98% |  |
| Cc1cccc(C)c1Nc1c(-c2ccsc2)nc2ccccn12 |  | inconclusive: 25.1 µM [inhibitor, partial curve] |
| Oc1c(Br)cc(/C=N/NC(=S)NCc2ccco2)cc1Br |  | inconclusive: 35.5 µM [inhibitor, partial curve] |
| CCN(CC)c1ccc(CNc2nc3ccccc3n2CCN2CCCCC2)cc1 |  | inconclusive: 56.2 µM [inhibitor, partial curve] |
| Cc1ccc(CN2C(=O)c3ccccc3C2C(=O)NC2CCCCCC2)cc1 (stereo not drawn) | inactive: 5.87% [at 76.3 µM] |  |
| C[C@@H]1O[C@@H](Oc2c(-c3cc(O)c(O)c(O)c3)oc3cc(O)cc(O)c3c2=O)[C@H](O)[C@H](O)[C@H]1O |  | active: 3.16 µM |
| O=C(NNS(=O)(=O)c1ccc(F)cc1)c1ccc([N+](=O)[O-])cc1 |  | inconclusive: 12.5 µM [inhibitor, partial curve] |
| COc1cccc(OC)c1C(=O)NC(=O)NNc1cc(C(F)(F)F)cc(C)n1 |  | inconclusive: 39.8 µM [inhibitor, partial curve] |
| O=C(CCCC(=O)c1ccccc1)Nc1ccc(O)cc1 |  | inconclusive: 31.4 µM [inhibitor, single point] |
| Cc1ccc(NC(=S)NNC(=O)c2c(Cl)c(C)nn2C)cc1 |  | inconclusive: 19.8 µM [inhibitor, partial curve] |
| COc1ccc(-c2nc(C#N)c(NCCCN(C)C)o2)cc1OC |  | inconclusive: 39.8 µM [inhibitor, single point] |
| COc1cc(C2CC(=O)Nc3c2c(=O)[nH]c2nc4ccccc4n32)ccc1O (stereo not drawn) |  | inconclusive: 20 µM [inhibitor, partial curve] |
| C/C(CCc1ccc2c(c1)OCO2)=N\N=C(/N)SC1CC(=O)N(c2ccc(Cl)cc2)C1=O (stereo not drawn) |  | inconclusive: 39.8 µM [inhibitor, single point] |
| Cc1ccccc1-c1nc(C#N)c(NCc2ccco2)o1 |  | inconclusive: 28.2 µM [inhibitor, partial curve] |
| CC1=C(C#N)C(=O)N(C2CCS(=O)(=O)C2)C(=O)/C1=C\c1ccc(C)o1 (stereo not drawn) |  | inconclusive: 19.8 µM [inhibitor, partial curve] |
| C/C(=N\NC(=S)Nc1ccc(F)cc1)C1CC1 |  | inconclusive: 35.5 µM [inhibitor, single point] |
| Cc1ccc(O)c(NC(=O)c2ccco2)c1 |  | inconclusive: 25.1 µM [inhibitor, partial curve] |
| CCOc1ccccc1CNC(=O)c1ccc2c(c1)N(CC)CCS2 |  | inconclusive: 3.55 µM [inhibitor, full curve] |
| CCc1nnc(N/N=C/c2ccc(O)c(OC)c2)n1N |  | inconclusive: 28.2 µM [inhibitor, partial curve] |
| COC(=O)Cc1ccc(NC(=S)NNC(=O)c2ccccc2Br)cc1 |  | inconclusive: 28.2 µM [inhibitor, partial curve] |
| Cn1c(NNC(=O)c2c(F)cccc2F)cc(=O)n(C)c1=O |  | inconclusive: 5.62 µM [inhibitor, partial curve] |
| Cc1csc(C(=O)NN)c1N(C)C |  | inconclusive: 35.2 µM [inhibitor, partial curve] |

| SMILES | activity change, negative = inhibition | Potency |
| --- | --- | --- |
| CCOC(=O)/C(=N\Nc1ccccc1Cl)N1CCN(c2ccccc2OC)CC1 |  | inconclusive: 14.1 µM [inhibitor, partial curve] |
| NCc1ccc2[nH]c(=O)[nH]c2c1 |  | inconclusive: 22.4 µM [activator, single point] |
| CC(Oc1ccccc1Cl)C(=O)N(Cc1cccs1)C1CCS(=O)(=O)C1 (stereo not drawn) |  | inconclusive: 50.1 µM [inhibitor, single point] |
| CCOc1cccc(/C=N/N2CCN(c3ccc(Cl)cc3)CC2)c1O |  | inconclusive: 39.5 µM [inhibitor, single point] |
| O=C(NNC(=S)NCc1ccccc1)c1cccnc1 |  | inconclusive: 11.2 µM [inhibitor, full curve, poor fit] |
| Cc1ccccc1OCC(=O)Nc1ccc2[nH]c(=O)sc2c1 | inactive: -9.76% [at 76.3 µM] |  |
| CCCCn1c(C)cc2cc(O)ccc21 |  | active: 31.6 µM |
| CCc1ccc(C2CC(=O)c3c([nH]c(C(=O)OC4CCCCCC4)c3C)C2)cc1 (stereo not drawn) | inactive: -4.24% [at 76.3 µM] |  |
| COc1cccc(C2C(C#N)=C(N)N(N(C)C)C3=C2C(=O)CC(C)(C)C3)c1OC (stereo not drawn) |  | inconclusive: 50.1 µM [inhibitor, single point] |
| Cc1c(CCO)c(=O)n(C)n1C(=O)c1ccc(Cl)cc1 |  | inconclusive: 22.2 µM [inhibitor, single point] |
| COc1ccc(O)c(/C=N/c2sc(C)c(C)c2C#N)c1 |  | active: 14 µM |
| Cc1ccc(C)c(NC(=S)NNC(=O)c2sccc2C)c1 |  | inconclusive: 31.6 µM [inhibitor, partial curve] |
| N#C/C(=C\c1ccc(N2CCCCC2)o1)C(N)=O |  | inconclusive: 39.5 µM [inhibitor, single point] |
| O=C(NCc1cn2ccccc2n1)c1ccco1 |  | inconclusive: 39.5 µM [inhibitor, single point] |
| COc1ccccc1NC(=O)C1=C(C)Nc2nc(-c3ccco3)nn2C1c1cccc(C)c1 (stereo not drawn) |  | inconclusive: 12.6 µM [inhibitor, partial curve] |
| Cc1ccc(O)c(Nc2ncnc3ccc([N+](=O)[O-])cc23)c1 |  | inconclusive: 31.6 µM [inhibitor, single point] |
| Cc1nn(-c2ccccn2)c2c1C(c1ccsc1)C1=C(CCCC1=O)N2 (stereo not drawn) |  | inconclusive: 39.5 µM [inhibitor, single point] |
| Cc1ccccc1NC(=O)C(NS(=O)(=O)c1ccc2c(c1)c(=O)n(C)c(=O)n2C)c1ccccc1 (stereo not drawn) |  | inconclusive: 100 µM [inhibitor, partial curve] |
| Cc1nc2c(-c3ccccc3)c(C)[nH]n2c(=O)c1Cc1ccc(Br)cc1 | inactive: -7.37% [at 76.3 µM] |  |
| CC1(C)Cc2c(sc3ncnc(NN)c23)CO1 |  | inconclusive: 50.1 µM [inhibitor, single point] |
| COc1cccc(OC)c1C(=O)NC(=S)N1CCCCC1c1cccnc1 (stereo not drawn) |  | inconclusive: 14.1 µM [inhibitor, partial curve] |
